Source: article PMC6919601, “Identification of Plasmodium dipeptidyl aminopeptidase allosteric inhibitors by high throughput screening” (PLoS ONE, 2019)
Hit rate of the full screen: of about 110,000 compounds, about 230 (0.21%) showed an effect of 50% or more. The list shows a part of the results.

Target: DPAP1 (Plasmodium falciparum, UniProt Q8IIJ9)
Assay: primary screen, percent inhibition; read by cleavage of a fluorogenic dipeptide substrate; higher = more effect of the substance
Design: species or system P. falciparum D10 trophozoite lysates; single well
Method: HTS was performed in black 384-well plates. The first and last two columns of each plate contained our negative (DMSO) and positive (10 μM JCP410) controls, and the 20 central columns the test compounds at 10 μM. Compounds were first diluted 50-fold into assay buffer (50 mM sodium acetate, 5 mM MgCl2, 10 mM β-mercaptoethanol, and 0.1% CHAPS, pH 5.5) from a 10 mM DMSO stock plates. One microliter of this 200 μM intermediate stock plate was dispensed into the assay plate. […] After 30 min, the reaction was quenched with 20 μL of 0.5 M acetic acid, and the fluorescent intensity measured at 523 nm (λex = 492 nm) using an Analyst HT multimode plate reader (Molecular Devices).
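Also: 30 min substrate incubation versus DMSO and 10 µM JCP410 controls.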

Sequence of DPAP1 (Q8IIJ9 whole entry, looked up): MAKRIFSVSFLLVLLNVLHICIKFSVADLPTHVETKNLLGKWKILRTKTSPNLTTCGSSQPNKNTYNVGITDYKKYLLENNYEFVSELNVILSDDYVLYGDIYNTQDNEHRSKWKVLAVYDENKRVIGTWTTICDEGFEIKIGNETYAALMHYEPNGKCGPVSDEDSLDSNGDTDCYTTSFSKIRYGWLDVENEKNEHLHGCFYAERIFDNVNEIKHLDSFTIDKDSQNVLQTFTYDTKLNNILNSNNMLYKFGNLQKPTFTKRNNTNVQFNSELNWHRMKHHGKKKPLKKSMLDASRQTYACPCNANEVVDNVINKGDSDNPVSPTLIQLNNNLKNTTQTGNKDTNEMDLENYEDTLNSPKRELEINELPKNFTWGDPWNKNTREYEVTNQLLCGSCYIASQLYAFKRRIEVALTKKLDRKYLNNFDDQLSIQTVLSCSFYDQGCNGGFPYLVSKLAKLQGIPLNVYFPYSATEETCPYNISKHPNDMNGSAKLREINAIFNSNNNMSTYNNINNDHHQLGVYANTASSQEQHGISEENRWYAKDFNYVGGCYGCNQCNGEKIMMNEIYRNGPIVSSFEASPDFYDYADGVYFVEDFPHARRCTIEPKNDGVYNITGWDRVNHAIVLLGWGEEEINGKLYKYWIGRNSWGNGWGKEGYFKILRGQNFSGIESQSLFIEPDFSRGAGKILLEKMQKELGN

SMILES | % Inhibition @ 10 uM
O=C(Nc1ccc2c(c1)OCCO2)NC1CCCCC1 | 4.83%
Cc1ccc(C)c(Cn2c(C(=O)O)c(CNCCc3c[nH]c4ccccc34)c3ccccc32)c1 | 0.277%
N#Cc1c(NC(=O)c2ccco2)sc2c1CCC2 | 4.6%
O=C(c1ccc(Cl)cc1)N1CCN(CCO)CC1 | 3.48%
O=C(c1ccc(F)cc1F)N1CCN(c2cc(N3CCOCC3)c(F)cc2[N+](=O)[O-])CC1 | -1.32%
C=CCn1cc(C=C2C(=O)OC(c3ccccc3)OC2=O)c2ccccc21 (centres unmarked) | -1.92%
O=C(O)c1cccc(NC(=O)c2ccc(C(=O)Nc3cccc(C(=O)O)c3)cc2)c1 | 9.19%
CCCCN(C(=O)c1cc(OC)c(OC)c(OC)c1)C1CC2CCC(C1)N2C (centres unmarked) | 5.4%
O=C(N[C@@H](CC1CCCCC1)C(=O)NC(CNc1ccccc1)CNc1ccccc1)c1ccccc1 | -5.21%
CCO/C(O)=C1/C(C)=Nc2ncnn2C1c1ccc(SC)cc1 (centres unmarked) | -1.62%
Cc1cc2nc3[nH]c4ccccc4c3nc2cc1C | -2.36%
COc1ccc(N2C(=O)CC(N3CCC(Cc4ccccc4)CC3)C2=O)cc1 (centres unmarked) | 1.35%
COc1ccc(OC)c(C2CCN(S(=O)(=O)c3ccc(-c4cc(C(F)(F)F)no4)s3)C2)c1 (centres unmarked) | -3.26%
C[C@@H](C[C@H](NC(=O)c1ccc(-c2ccccc2Cl)[n+]([O-])c1)C(=O)NCC#N)c1ccccc1 | -6.56%
Cc1ccc(NC(=O)COc2cc(C)ccc2C(C)C)c(Br)c1 | -0.351%
Brc1ccc(C2=CC(c3cccs3)n3ncnc3N2)cc1 (centres unmarked) | 1.12%
COc1ccccc1-c1c(C)nn2c(N(C)CCC#N)cc(C)nc12 | -1.46%
CS(=O)(=O)N(CC(=O)Nc1ccc(OCc2ccccc2)cc1)c1cccc(F)c1 | -7.34%
Cc1[nH]c(-c2ccc(F)cc2)cc1C(=O)N1CCN(c2ccccn2)CC1 | 5.8%
CCCCCCOC(=O)c1[nH]c2c(c1C)C(=O)CC(c1ccco1)C2 (centres unmarked) | -3.87%
N=C1/C(=C/c2ccc(O)cc2)C(=O)N=C2SC(c3ccccc3Cl)=NN12 | -3.4%
CC(=O)Nc1ccc(C(=O)Nc2ccc(S(=O)(=O)N3CCC(C)CC3)cc2)cc1 | 2.22%
O=C(NCc1cccs1)C1CCC(CNS(=O)(=O)c2ccc(Br)s2)CC1 (centres unmarked) | 1.16%
CC(C)(C)NS(=O)(=O)C1CCS(=O)(=O)C1 (centres unmarked) | 0.215%
CCC(CC)C(=O)Nc1noc2ccccc12 | 2.19%
COc1ccc(CN2CCN(c3ccccn3)CC2)cc1C | 1.48%

SMILES | % Inhibition @ 10 uM
COc1cccc(Nc2nc(-c3ccc(Br)cc3)cs2)c1 | -2%
CCc1nnc(S)c2cc3sccc3n12 | 4.83%
O=C1CC(C(=O)Nc2nncs2)C(c2ccccc2)O1 (centres unmarked) | 2.1%
CC1(C)CC(=O)c2c(-c3cccs3)n[nH]c2C1 | -3.63%
CCN(CC)C(=O)C1CCCN(Cc2ccc(OC)c(OC)c2)C1 (centres unmarked) | -1.98%
CCN(CC)c1ccc(NC(=O)C(C)Oc2ccccc2)cc1 (centres unmarked) | 0.843%
CC(C)(C)NCCCCOc1ccc(F)cc1 | -1.54%
C=CCN1Cc2ccc(C(=O)O)cc2C1 | -5%
CCOC(=O)C1=C(CN2CCN(C(=O)OCC)CC2)NC(=O)NC1c1ccc(F)cc1 (centres unmarked) | -4.69%
N#CCNC(=O)[C@H](CC1CCCCC1)NC(=O)c1sc2ccccc2c1Cl | 2.86%
Clc1ccccc1OCCCCn1ccnc1 | 4.9%
CC(C)c1ccc(/C=C2\C(=N)N3N=C(N4CCCC4)SC3=NC2=O)cc1 | 0.0579%
CCC(C(=O)N1CC(C)CC(C)C1)n1c(C(=O)OC)cc2occc21 (centres unmarked) | -6.24%
O=[N+]([O-])c1ccc(N2CCN(S(=O)(=O)c3ccc(Cl)cc3)CC2)c(Cl)c1 | 4.7%
CC1(C)CC2=Nc3ccccc3NC(c3ccccc3F)C2=C(O)C1 (centres unmarked) | -5.48%
CC(=O)c1cccc(NC(=O)COc2ccccc2Cl)c1 | 2.79%
Cc1ccc(-c2cc(-c3ccccc3)nc(O)n2)cc1 | 4.03%
COc1ccc2[nH]c3c(=O)n(CCCCC(=O)N4CCN(c5ncccn5)CC4)c(=S)[nH]c3c2c1 | -5.76%
CC(C)(C)c1ccc(CN(C(=O)c2cc(=O)c3ccccc3o2)C2CCS(=O)(=O)C2)cc1 (centres unmarked) | -1.47%
Oc1nc2ccccc2n2cccc12 | -7.57%
CC(C)N(C(=O)Cn1c(=O)oc2ccccc21)c1ccccc1 | 0.658%
Cc1cc(C)nc(NC(=O)c2cc(-c3ccccc3)nc3ccccc23)n1 | -5.28%
CCC(C(=O)Nc1ccc(NC(C)=O)cc1)c1ccccc1 (centres unmarked) | -1.24%
CCN1CCCC1CNC(=O)C1CCN(c2nnc(-n3cccc3)s2)CC1 (centres unmarked) | -0.522%
COc1ccc(NCc2ccc(C(F)(F)F)cc2)cc1 | -4.03%
Cc1nc2ncnn2c(O)c1Cc1ccccc1 | 1%

SMILES | % Inhibition @ 10 uM
Cc1cccc(OCCCn2c(CCCO)nc3ccccc32)c1 | 2.92%
CC(C)(C)c1ccc2c(c1)C(=O)NC2=O | -7.99%
Fc1ccc(N2N=C(/C=C/c3ccc(Cl)cc3)CC2c2ccc(Cl)cc2)cc1 (centres unmarked) | -7.02%
COc1ccc(-c2noc(-c3nnn(-c4ccccc4C(F)(F)F)c3N)n2)cc1 | 6.44%
Cc1ccccc1C(=O)Nc1ccc(S(=O)(=O)N2CCOCC2)cc1 | 0.408%
Cc1c(CN(C)C)c2c(n1C)C(=O)c1ccc(Br)cc1-2 | 3.74%
COc1ccc(C(=O)Nc2ccc(S(=O)(=O)N3CCOCC3)cc2)cc1 | 3.13%
O=C(NCc1ccc2c(c1)OCO2)[C@H](Cc1ccccc1)N1Cc2ccccc2C1=O | -2.25%
COC(=O)c1sc2cc(OC)ccc2c1Cl | 5.03%
Cn1c(=O)c2c(nc(CN3CCOCC3)n2Cc2ccccc2Cl)n(C)c1=O | 1.23%
C=CCN(Cc1nc(-c2ccc(Cl)cc2)no1)S(=O)(=O)c1ccc(C)cc1 | 2.41%
Cc1nc2cc(Br)ccc2[nH]1 | -3.88%
O=C(Cn1ncc2ccccc21)NCCCc1ccccc1 | 4.84%
COCCNS(=O)(=O)c1ccc(-c2cc(C(F)(F)F)no2)s1 | 0.359%
CC1CCN(S(=O)(=O)c2cn(CC(=O)N3CCN(C)CC3)c(=O)c3ccccc23)CC1 | 3.5%
Cc1ccc(CC2CC(=O)N(c3ccccn3)C2=O)cc1 (centres unmarked) | 20.5%
O=C(Cn1ncn2nc(-c3cccs3)cc2c1=O)NCCCN1CCN(Cc2ccccc2)CC1 | 2.27%
COc1ccc(CN(C(C)=O)C2CC(=O)N(c3ccc(Cl)cc3)C2=O)cc1 (centres unmarked) | 2.92%
Cc1ccc(C2Nc3ccccc3N=C3CC(c4cccs4)CC(O)=C32)o1 (centres unmarked) | -1.38%
Cc1nc2nc(NC(=O)c3ccccc3)nn2c(O)c1C | -6.81%
Cc1c2cnn(CC(=O)NCCCOC(C)C)c(=O)c2c(C)n1Cc1ccccc1Cl | -2.17%
C=CCN(CC=C)S(=O)(=O)c1cc(Cl)ccc1Cl | 4.54%
CCCN1C(=O)c2[nH]nc(-c3cc(C)ccc3O)c2C1c1ccc(C)cc1 (centres unmarked) | -2.92%
O=C(c1ccccc1)N1CCC(O)C2CCCCC21 (centres unmarked) | -0.703%
Cc1c(C2(c3c(C)n(C)n(-c4ccccc4)c3=O)C(=O)Nc3ccc(Br)cc32)c(=O)n(-c2ccccc2)n1C | 0.215%
O=C(O)CCNC(=O)/C(=C/c1ccc2c(c1)OCO2)NC(=O)c1ccco1 | 1.01%

SMILES | % Inhibition @ 10 uM
Nc1nc2n(n1)C(c1ccc(Cl)cc1)CC(=O)N2 (centres unmarked) | -2.65%
O=C(CCCn1c(=O)c2cccn2c2cccnc21)NCCCc1ccccc1 | 4.39%
N#CC1=C(N)OC2=C(C(=O)CC(c3ccco3)C2)C1c1ccc2c(c1)OCO2 (centres unmarked) | 5.48%
Cc1ccc2oc(=O)c3cnn(CC(=O)Nc4nc(C)cs4)c3c2c1 | -1.7%
O=C1CCC(=O)N1CCSC(=S)N1CCOCC1 | 6.18%
Cc1nc(N)sc1-c1csc(Nc2ccc(N(C)C)cc2)n1 | -4.32%
COc1cc(CNCc2cccnc2)ccc1OCC(N)=O | -3.26%
CCC(=O)N1CC2(C)CN(C(=O)CC)CC(C)(C1)C2 | 3.27%
CCOC(=O)c1nn2c(C(F)(F)F)cc(-c3ccco3)nc2c1Cl | 3.76%
Cc1nc2c(C(=O)N3CCCC3)cnn2c(C)c1Cc1ccccc1F | 1.27%
Cc1nc2ccccc2nc1-c1ccc([N+](=O)[O-])cc1 | 1.29%
CCOC(=O)N1CCN(Cc2nc(-c3ccc(OC)cc3)no2)CC1 | 3.57%
C=CCO/C(O)=C1\C(C)=NC(SCC(=O)Nc2nccs2)=C(C#N)C1c1ccco1 (centres unmarked) | 3.79%
COc1ccc(C2NC(C(=O)O)Cc3c2[nH]c2ccccc32)cc1OC (centres unmarked) | -5.9%
COc1ccc(CCNS(=O)(=O)c2ccc(OC)c(Cl)c2Cl)cc1 | 1.59%
O=C(Cc1ccccc1)N1CCN(c2ccccn2)CC1 | 3.72%
CC(=O)N1C(=O)c2cccc3cccc1c23 | 0.273%
CCOc1ccc(C(=O)/C=C/c2ccccc2C(F)(F)F)cc1 | 5.7%
COc1cccc(S(=O)(=O)NCC(=O)N2CCN(C(=O)c3ccco3)CC2)c1 | 1.17%
O=S1(=O)C(/C=N/CC2CCCO2)=C(O)c2sccc2N1Cc1ccccc1 (centres unmarked) | -4.22%
CCOc1ccccc1CNC(=O)c1ccc(CS(=O)Cc2ccc(C)cc2)o1 (centres unmarked) | 2.83%
O=C(NCCNC(=O)c1ccc(C(F)(F)F)cc1)c1ccc(C(F)(F)F)cc1 | 2.18%
O=C(Nc1nc2c(s1)CCCC2)c1ccccc1Oc1ccccc1 | 0.222%
